These results are taken from a collection of fitness landscapes (doi:10.1016/j.celrep.2020.107928).

To fix the notation:
B1: Caulobacter ParB omega fusion; a variant is named by its letters at X, in order, B8GW30 (parent)
chain: MESVVVGEPGMSEGRRGLGRGLSALLGEVDAAPAQAPGEQLGGSREAPIEILQRNPDQPRRTFREEDLEDLSNSIREKGVLQPILVRPSPDTAGEYQIVAGERAWRAAQRAGLKTVPIMVRELDDLAVLEIGIIENVQRADLNVLEEALSYKVLMEKFERTQENIAQTIGKSXSHVANXMRLLXLPDEVQSYLVSGELTAXHARAIAAAADPVALAKQIIEGGLSVRETEALARKAPNLSAGKSKGGRPPRVKDTDTQALESDLSSVLGLDVSIDHRGSTGTLTITYATLEQLDDLCNRLTRGI

Over roughly 81,000 sequences, “one-hybrid fitness for binding parS DNA” has its median near -0.17; the highest 2% begin near 0.51. The list shows a part of the results.

In the assay the parent is B1. The experiment in a line: one-hybrid fitness for binding parS DNA (scaled: cognate 1, non-cognate 0); higher = stronger binding. To be noted: with parS DNA site. The method, boiled down: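 Fitness is the rescaled log change in variant-to-wild-type read ratio, measured by Illumina sequencing of plasmids before and after bacterial one-hybrid selection. The scale puts cognate at 1 and non-cognate at 0. Selection of Caulobacter ParB libraries, four specificity codons randomised, took place in E. coli USO with a HIS3 reporter, site 19 bp from the promoter, over 48 hours at 37°C on M9-minus-histidine with 0.1 mM IPTG and 5 mM 3-AT.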
Consider HPNG, for which the “one-hybrid fitness for binding parS DNA” value was no more than 0.2.

As to MHQW, the “one-hybrid fitness for binding parS DNA” value is no more than 0.2.

Turning to RPIS, the “one-hybrid fitness for binding parS DNA” value was no more than 0.2.

For the variant YCPS, the “one-hybrid fitness for binding parS DNA” value was no more than 0.2.

With KFNE, the “one-hybrid fitness for binding parS DNA” value is no more than 0.2.

For KLIS, the “one-hybrid fitness for binding parS DNA” value was no more than 0.2.

GGTC: the “one-hybrid fitness for binding parS DNA” value was no more than 0.2.

Consider RIYQ, for which the “one-hybrid fitness for binding parS DNA” value is no more than 0.2.

Take PPFT: the “one-hybrid fitness for binding parS DNA” value was no more than 0.2.

Consider TMRV, for which the “one-hybrid fitness for binding parS DNA” value is no more than 0.2.

For the variant GMRQ, the “one-hybrid fitness for binding parS DNA” value is no more than 0.2.

With AMFR, the “one-hybrid fitness for binding parS DNA” value is no more than 0.2.

DKSG: the “one-hybrid fitness for binding parS DNA” value is no more than 0.2.

Take LIKA: the “one-hybrid fitness for binding parS DNA” value is no more than 0.2.

On to STWY, for which the “one-hybrid fitness for binding parS DNA” value is no more than 0.2.

Regarding YLNM, the “one-hybrid fitness for binding parS DNA” value was no more than 0.2.

For the variant THRR, the “one-hybrid fitness for binding parS DNA” value was no more than 0.2.

In the case of LERN, the “one-hybrid fitness for binding parS DNA” value is no more than 0.2.

Turning to YVSP, the “one-hybrid fitness for binding parS DNA” value was no more than 0.2.

With MMTC, the “one-hybrid fitness for binding parS DNA” value was no more than 0.2.

As for PTKI, the “one-hybrid fitness for binding parS DNA” value is no more than 0.2.

WSCS: the “one-hybrid fitness for binding parS DNA” value was no more than 0.2.

Take CKCS: the “one-hybrid fitness for binding parS DNA” value was no more than 0.2.

Regarding RKKL, the “one-hybrid fitness for binding parS DNA” value is no more than 0.2.

Regarding TWNT, the “one-hybrid fitness for binding parS DNA” value is no more than 0.2.

On to STVA, for which the “one-hybrid fitness for binding parS DNA” value is no more than 0.2.

Regarding EMHC, the “one-hybrid fitness for binding parS DNA” value was no more than 0.2.

As for TWCD, the “one-hybrid fitness for binding parS DNA” value is no more than 0.2.

On to MLKR, for which the “one-hybrid fitness for binding parS DNA” value was no more than 0.2.

For the variant KVGN, the “one-hybrid fitness for binding parS DNA” value is no more than 0.2.

As for KYPT, the “one-hybrid fitness for binding parS DNA” value is no more than 0.2.

As to SNYE, the “one-hybrid fitness for binding parS DNA” value was no more than 0.2.

As for FLQL, the “one-hybrid fitness for binding parS DNA” value was no more than 0.2.

On to QLDA, for which the “one-hybrid fitness for binding parS DNA” value was no more than 0.2.

In the case of TNVT, the “one-hybrid fitness for binding parS DNA” value was no more than 0.2.

Take HTTI: the “one-hybrid fitness for binding parS DNA” value was no more than 0.2.

With MAHR, the “one-hybrid fitness for binding parS DNA” value was no more than 0.2.

Take KESG: the “one-hybrid fitness for binding parS DNA” value is no more than 0.2.

For the variant PRRF, the “one-hybrid fitness for binding parS DNA” value is no more than 0.2.

As for VSYV, the “one-hybrid fitness for binding parS DNA” value is no more than 0.2.

On to SISH, for which the “one-hybrid fitness for binding parS DNA” value is no more than 0.2.

As for YRSG, the “one-hybrid fitness for binding parS DNA” value was no more than 0.2.

With VTLV, the “one-hybrid fitness for binding parS DNA” value was no more than 0.2.

Take ARSG: the “one-hybrid fitness for binding parS DNA” value is no more than 0.2.

Turning to RMKD, the “one-hybrid fitness for binding parS DNA” value is no more than 0.2.

In the case of LDSY, the “one-hybrid fitness for binding parS DNA” value is no more than 0.2.

Turning to YGPG, the “one-hybrid fitness for binding parS DNA” value was no more than 0.2.

Consider RCAT, for which the “one-hybrid fitness for binding parS DNA” value was determined as 0.921.

On to VDPS, for which the “one-hybrid fitness for binding parS DNA” value was no more than 0.2.

Take NNAD: the “one-hybrid fitness for binding parS DNA” value is no more than 0.2.

With RPTF, the “one-hybrid fitness for binding parS DNA” value is no more than 0.2.

Consider WRTG, for which the “one-hybrid fitness for binding parS DNA” value was no more than 0.2.

PPWC: the “one-hybrid fitness for binding parS DNA” value is no more than 0.2.

For the variant ALPQ, the “one-hybrid fitness for binding parS DNA” value was no more than 0.2.

For the variant EISG, the “one-hybrid fitness for binding parS DNA” value was no more than 0.2.

Take PCVG: the “one-hybrid fitness for binding parS DNA” value was no more than 0.2.

With CQFS, the “one-hybrid fitness for binding parS DNA” value came out at 0.281.

Regarding SHGD, the “one-hybrid fitness for binding parS DNA” value is no more than 0.2.

Take FAVG: the “one-hybrid fitness for binding parS DNA” value was no more than 0.2.

For the variant PHTD, the “one-hybrid fitness for binding parS DNA” value is no more than 0.2.

As for SAPL, the “one-hybrid fitness for binding parS DNA” value was no more than 0.2.

For the variant RVSY, the “one-hybrid fitness for binding parS DNA” value came out at 0.479.

On to NCIR, for which the “one-hybrid fitness for binding parS DNA” value was no more than 0.2.

Consider DRQA, for which the “one-hybrid fitness for binding parS DNA” value was no more than 0.2.

Turning to SNQG, the “one-hybrid fitness for binding parS DNA” value was no more than 0.2.

Regarding RAGS, the “one-hybrid fitness for binding parS DNA” value was 0.989.

For QATD, the “one-hybrid fitness for binding parS DNA” value is no more than 0.2.

As for GAEL, the “one-hybrid fitness for binding parS DNA” value was no more than 0.2.

In the case of DAFG, the “one-hybrid fitness for binding parS DNA” value was no more than 0.2.

Take TTKH: the “one-hybrid fitness for binding parS DNA” value was no more than 0.2.

Consider PYPC, for which the “one-hybrid fitness for binding parS DNA” value is no more than 0.2.

Turning to PCEG, the “one-hybrid fitness for binding parS DNA” value is no more than 0.2.

Take KTTG: the “one-hybrid fitness for binding parS DNA” value was no more than 0.2.

Take APFL: the “one-hybrid fitness for binding parS DNA” value was no more than 0.2.

Take MRSE: the “one-hybrid fitness for binding parS DNA” value is no more than 0.2.

As to KGED, the “one-hybrid fitness for binding parS DNA” value was no more than 0.2.

On to SHGF, for which the “one-hybrid fitness for binding parS DNA” value was no more than 0.2.
